Out of some 310,000 compounds screened, about 14,000 (4.5%) showed an effect of 50% or more. Effects have a minus sign here. The list shows a part of the results.
target: human ether-à-go-go-related gene (hERG) potassium channel (human, UniProt Q12809); assay: primary screen, population patch clamp on CHO cells stably expressing hERG
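Further: peak tail current of the secondary pulse compared with the same well before compound.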

Sequence of human ether-à-go-go-related gene (hERG) potassium channel (Q12809 whole entry, looked up): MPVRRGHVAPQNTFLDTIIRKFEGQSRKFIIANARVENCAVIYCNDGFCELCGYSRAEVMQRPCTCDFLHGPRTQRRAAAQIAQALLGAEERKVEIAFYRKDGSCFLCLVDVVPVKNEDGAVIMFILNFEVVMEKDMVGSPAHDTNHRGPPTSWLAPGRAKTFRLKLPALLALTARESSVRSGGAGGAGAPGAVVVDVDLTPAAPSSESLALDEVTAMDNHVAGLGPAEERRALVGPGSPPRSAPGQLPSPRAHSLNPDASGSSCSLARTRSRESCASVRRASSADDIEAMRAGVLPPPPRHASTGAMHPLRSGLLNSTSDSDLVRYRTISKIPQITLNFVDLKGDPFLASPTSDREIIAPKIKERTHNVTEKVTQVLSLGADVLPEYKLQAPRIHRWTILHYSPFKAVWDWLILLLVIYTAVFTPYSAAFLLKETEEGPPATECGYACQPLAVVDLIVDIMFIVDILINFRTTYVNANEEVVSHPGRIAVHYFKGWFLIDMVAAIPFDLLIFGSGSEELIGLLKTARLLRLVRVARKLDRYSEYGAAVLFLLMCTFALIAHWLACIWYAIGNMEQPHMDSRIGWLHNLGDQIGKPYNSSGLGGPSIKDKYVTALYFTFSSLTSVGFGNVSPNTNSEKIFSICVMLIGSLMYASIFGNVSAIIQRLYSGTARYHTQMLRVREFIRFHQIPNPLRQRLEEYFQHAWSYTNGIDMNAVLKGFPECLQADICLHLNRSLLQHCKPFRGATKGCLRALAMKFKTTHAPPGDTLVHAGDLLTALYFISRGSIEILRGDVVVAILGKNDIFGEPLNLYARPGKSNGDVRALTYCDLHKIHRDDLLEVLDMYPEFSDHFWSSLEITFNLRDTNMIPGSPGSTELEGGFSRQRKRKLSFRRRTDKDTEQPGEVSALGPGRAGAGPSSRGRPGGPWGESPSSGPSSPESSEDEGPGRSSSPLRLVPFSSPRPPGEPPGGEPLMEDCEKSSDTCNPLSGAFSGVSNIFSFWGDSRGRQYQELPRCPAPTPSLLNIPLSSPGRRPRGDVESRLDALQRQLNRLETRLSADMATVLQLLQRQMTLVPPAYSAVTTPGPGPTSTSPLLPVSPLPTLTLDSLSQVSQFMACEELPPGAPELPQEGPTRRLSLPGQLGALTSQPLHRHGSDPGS

| Compound | hERG current change (%, negative = inhibition) at 10uM |
| --- | --- |
| COc1ccccc1NCC(O)COc1ccc(C(C)(C)C)cc1.O=C(O)C(=O)O (stereo not drawn) | 6.79% |
| Nc1nc(SCC(=O)N2CCc3ccccc3C2)[nH]c(=O)c1-c1ccccc1 | -7.24% |
| CCOC(=O)C1CCN(C(=O)CCC(=O)NCCc2ccc(Cl)cc2)CC1 | -8.97% |
| CCOC(=O)c1cc(-c2ccccc2)sc1NC(=O)C(C)(C)C | 0.0757% |
| Cc1ccccc1N(C(=O)c1ccco1)C(C(=O)NC1CCCC1)c1cccnc1 (stereo not drawn) | 2.84% |
| CCCN(CC(=O)Nc1ccccc1OC)C(=O)C1=COCCO1 | -0.283% |
| N#CCC(=O)N/N=C\c1cccc(OC/C=C/c2ccccc2)c1 | 12.5% |
| Cc1cnc(NC(=O)CSc2nnc(-c3ccncc3)n2C2CCCCC2)s1 | -18.9% |
| Cn1c(=O)n(CCc2ccccc2)c2ccccc21 | 12.2% |
| COCCCn1c2nc3ccccc3nc2c2c(=O)n(-c3ccccc3OC)cnc21 | 3% |
| O=C(CSC1=NCCS1)Nc1ccc(S(=O)(=O)N2CCCCCC2)cc1 | -19.2% |
| CC(C)Cn1c(N)c(-c2nc(C(C)C)c(C(=O)c3ccccc3F)s2)c(=O)n(C)c1=O | 21.8% |
| COc1cc(/C=N/Nc2nc3ccccc3s2)ccc1O | -4.96% |
| CCc1ccc(C(=O)CSc2n[nH]c(C)n2)cc1 | 1.78% |
| COC(=O)CCCC1=CC2=CC(=O)C(C)(O)C(=O)C2=CO1 (stereo not drawn) | 7.61% |
| CCOC(=O)N1CCN(Cc2nc3cc(NC(=O)c4cccs4)ccc3n2C)CC1 | -74.7% |
| COc1ccc(-n2c(CCC(=O)O)ccc2-c2ccc(F)cc2)c(OC)c1 | 7.95% |
| CCS(=O)(=O)NCc1nnc2n1-c1ccc(Br)cc1C(c1ccccc1Cl)=NC2 | -49% |
| COc1ccc(CNc2nc(NCc3ccc(OC)cc3)c3[nH]cnc3n2)cc1 | 13.8% |
| C[N+](C)(C)C[C@H](O)CC(=O)O.[Cl-] | 12% |
| CC1(C)CC(=O)C(C(O)c2ccc([N+](=O)[O-])cc2)C(C)(C)N1 (stereo not drawn) | -13% |
| Cc1nnc(SCC(=O)NCc2ccco2)[nH]c1=O | 3.4% |

| Compound | hERG current change (%, negative = inhibition) at 10uM |
| --- | --- |
| CC(=O)Nc1ccc(OC(=O)c2ccccc2N)cc1 | -18.7% |
| CC(=O)Oc1ccc(C(=O)Nc2ccccc2C(=O)NCC(C)C)cc1 | -1.3% |
| Cc1ccc(C(=O)N/C(=C\c2ccc(Cl)cc2)C(=O)NCCCN2CCOCC2)cc1 | -72.5% |
| CC(SC1CCCC1)C(=O)NC(C)(C#N)C(C)C (stereo not drawn) | -8.61% |
| O=C(COC(=O)c1cc(S(=O)(=O)N2CCCCC2)ccc1N1CCOCC1)c1ccc(Cl)cc1 | -46.1% |
| Cc1ccc(CNC(=O)CCNC(=O)c2ccco2)cc1 | 4.4% |
| COc1ccc(NC2=C(C)C(=O)CC2)cc1 | 8.74% |
| CC(=O)/C(C(=N)N1CCN(Cc2ccccc2)CC1)=C(\C)O | 11.4% |
| CCn1cc(S(=O)(=O)NC2CCCCC2)cn1 | -3.41% |
| COC(=O)C(C)n1cnc2c(nnn2-c2ccc(C)cc2)c1=O (stereo not drawn) | -10.6% |
| O=C(COC(=O)c1nc(Cl)ccc1Cl)NC1CCCCCC1 | -22.3% |
| Cc1cccc(NC(=O)c2ccc([N+](=O)[O-])cc2Cl)n1 | -22.8% |
| O=C(c1cc(N2CCCCC2)nc2ccccc12)N1CCOCC1 | -7.87% |
| Cc1cc2c(cc1C)N(C(=O)CN1C(=O)c3ccccc3C1=O)C(C)(C)c1ssc(=S)c1-2 | 8.22% |
| CCCC(C(=O)N(C)CC(=O)Nc1ccc(N2CCOCC2)cc1)c1ccccc1 (stereo not drawn) | -18.3% |
| CCOC(=O)C(Sc1nnc(-c2ccncc2)o1)C(C)=O (stereo not drawn) | 27.7% |
| CCN1CCN(C(=O)CCCCCn2c(=O)[nH]c3cc(C(=O)OC)ccc3c2=O)CC1 | 7.14% |
| CN(C)C(CN1C(=O)C2CC=CCC2C1=O)c1cn(C)c2ccccc12.Cl (stereo not drawn) | -1.75% |
| Cc1cccn2c(=O)c(/C=C(\C#N)C(=O)NCc3ccco3)c(N3CCCC(C)C3)nc12 (stereo not drawn) | -40.9% |
| CC(c1nccs1)N(C)C(=O)c1ccc(OC2CCN(CCc3ccccc3)CC2)cc1 (stereo not drawn) | -51.4% |
| Oc1ccccc1Nc1nc(-c2ccccc2O)nc2ccccc12 | 13.2% |
| O=C(CN1CCCCC1)Nc1scc2c1c(=O)oc1ccccc12 | -10.1% |

| Compound | hERG current change (%, negative = inhibition) at 10uM |
| --- | --- |
| COc1ccc(CNC(=O)CN(C(=O)c2csnn2)c2cccc(F)c2)cc1 | -12.8% |
| Cc1cc(NC(=O)c2ccc(S(=O)(=O)N3CCc4ccccc43)cc2)no1 | 7.22% |
| CC(=O)c1cc2c(cc1N/C(=N/S(=O)(=O)c1ccccc1)c1ccc(Cl)cc1)OCO2 | -13.2% |
| COc1ccc(N(CCCN2C(=O)c3cccc4cccc(c34)C2=O)C(=O)c2ccncc2)cc1 | -9.05% |
| CC1(C)OC(=O)N(c2ccccn2)C1(C)O (stereo not drawn) | 17.1% |
| COc1cccc(-c2cc(C(=O)Nc3cc(C)on3)no2)c1 | 5.61% |
| COc1cc(C(=O)OCC(=O)N2CCCCC2C)cc(NC(=O)c2cccs2)c1OC (stereo not drawn) | 3.38% |
| O=C(CCN1C(=O)C2C3C=CC(C3)C2C1=O)Nc1ccccc1 (stereo not drawn) | 21.1% |
| CCCCOC(=O)c1nc[nH]c1C(=O)OCCCC | 34.2% |
| Cc1cc(C)cc(C(=O)N/N=C/c2ccoc2)c1 | 5.26% |
| C/C(=N\NC(=O)c1cc(Cl)ccc1O)c1ccc(Br)s1 | -3.88% |
| Nn1c(Cc2cccc3ccccc23)n[nH]c1=S | 14.1% |
| Cc1noc(NS(=O)(=O)c2ccc(NC(=O)CSc3nc4c(cc3C#N)CCC4)cc2)c1C | 9.3% |
| CC(C)(C)NCCCCOc1ccc(F)cc1 | -1.76% |
| CCn1cc(C2N3CC4(C)CN2CC(C)(C3)C4=O)c2ccccc21 (stereo not drawn) | 7.47% |
| COCCNC(=O)C(c1ccc(C)cc1)N(CCOC)C(=O)CCC(=O)Nc1nccs1 (stereo not drawn) | 21.3% |
| Cc1ccc(N(C(=O)c2ccco2)C(C(=O)NC2CCCC2)c2cccnc2)cc1C (stereo not drawn) | -0.0195% |
| Cc1ccc(F)c(NC(=O)c2cncn2-c2ccccc2)c1 | -17.7% |
| O=C(CN1C(=O)NC2(CCc3ccccc32)C1=O)NCCc1ccccc1 (stereo not drawn) | -6.43% |
| CCOc1ccc(S(=O)(=O)N(CC)CC(=O)NCc2ccco2)cc1C | -13.3% |
| CC(C)(CSc1nncn1N)NS(=O)(=O)c1ccc(Cl)cc1 | 7.31% |
| Cc1cc(C(=O)NNC(=O)c2ccc(S(=O)(=O)N(C)C)cc2)c(C)o1 | 31% |

| Compound | hERG current change (%, negative = inhibition) at 10uM |
| --- | --- |
| Cc1noc(C)c1S(=O)(=O)N1CCC(C(=O)N2CCC(N3CCCCC3)CC2)CC1 | 14.3% |
| CCOC(=O)c1[nH]c(C)c(C(=O)OCC(=O)NC(C)c2ccc(F)cc2)c1C (stereo not drawn) | 4.81% |
| Nc1nc(-c2ccccn2)nc(N)c1Cc1ccc(Cl)cc1Cl | 3.43% |
| O=C(Nc1ccc(Cl)c(Cl)c1)Nc1cc(S(=O)(=O)N2CCOCC2)ccc1N1CCCC1 | -16.6% |
| CCn1c(C)nc2cc(C(=O)N/N=C/c3cccc(O)c3O)ccc21 | 7.54% |
| CC1CN(C(=O)c2ccc3c(c2)OCO3)OC(c2ccccc2)O1 (stereo not drawn) | -0.0529% |
| CCOCCCN(C)C1CCN(C(=O)c2oc3ccccc3c2NC(=O)Cc2ccc(F)cc2)CC1 | -77.8% |
| CC(C)CN(CC(C)C)C(=O)Nc1ccc(F)cc1F | 19.5% |
| O=C(COC(=O)c1ccco1)Nc1ccc2c(c1)OCCO2 | 14.6% |
| CSc1ccc(CCNC(=O)c2cccc3c2C(=O)N(C2CCCCC2)C3)cc1 | -14.4% |
| Nc1c(Cl)cc(-c2csc(N3CCCC3c3nc4cc(Cl)c(N5CCCCC5)cc4n3CCCO)n2)cc1Cl (stereo not drawn) | 14.6% |
| NC(=O)c1ccc(NC(=O)CNC(c2ccccc2)c2ccccc2)cc1 | 7.12% |
| Clc1cccc(Cl)c1COn1nnc2ccccc21 | -3.48% |
| CCn1c(=O)c(C(=O)Nc2nc3ccccc3[nH]2)c(O)c2ccccc21 | -28.3% |
| COCCCNC(=O)CS(=O)(=O)Cc1nc(-c2ccccc2C)oc1C | 6.26% |
| COc1ccc(N(C(=O)c2cccnc2)S(=O)(=O)c2ccc(OC)c(OC)c2)cc1 | -31.3% |
| Cc1nc(C(F)(F)F)ccc1C(=O)NN1CCOCC1 | 26.4% |
| Cn1c2ccccc2c(=O)c2c(=O)n(Cc3ccco3)c(-c3ccc(C(C)(C)C)cc3)nc21 | 8.96% |
| COc1ccc(-c2cc(C3CCN(Cc4cccc(C(F)(F)F)c4)CC3)[nH]n2)cc1 | -55.2% |
| COc1cccc(NC(=O)Cc2nc(-c3ccccc3)sc2-c2ccc(C)cc2)c1 | 11.8% |
| COc1ccc(C(=N/O)/C(=N/O)c2ccc(OC)cc2)cc1 | -4.76% |

Source: PMC4336329 (PLoS ONE, 2015)
